The source of these data is ChEMBL document CHEMBL1201862, “PubChem BioAssay data set” (2004).

The structures appear in SMILES notation.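 Growth conditions: 96-well plates. Treatment: test compound, 48 hours, 5 concentrations. Analysis: linear interpolation between bracketing concentrations; unreached endpoints set to highest concentration. At the GI50, growth is halved.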 Active and inactive are the calls of the source. Rule as the data show it: active = GI50 up to about 1.1 µM and inactive = higher.

The test relates to NCI-H322M. In words: inhibition of tumour cell growth, NCI panel, 48 h.
On to `CCN(CC)CCN1c2ccccc2Sc2ccc3ccccc3c21`, for which the GI50 is inactive: 10.5 µM. To `N#CC(c1ccc(O)cc1)N1CCN(C(C#N)c2ccc(O)cc2)CC1` (centres undefined) belongs inactive: > 56.5 µM; to `CC1=C(C)C(=O)C2=C(OCCCO2)C1=O`, inactive: > 100 µM; to `CCOC(=O)CN1CC(C2=C(O)CN(CC(=O)OCC)C2=O)=CC1=O`, inactive: > 100 µM. As to `CC(=O)c1c(-c2ccc(Cl)cc2)c(C#N)c(=S)n(C2OC(CO)C(O)C(O)C2O)c1-c1ccccc1` (centres undefined), the GI50 was inactive: > 100 µM. For the compound `Cn1nnc2c(C(N)=S)ncn2c1=O`, the GI50 is inactive: > 100 µM. Take `COC(=O)c1sc2ncc3c(c2c1N)CCCCCC3`: the GI50 was inactive: > 100 µM. Take `COC(=O)c1c2c(cc3c1CC1(Cc4cc5c(c(C=O)c4C1)CCC5)C3)CCC2` (centres undefined): the GI50 was inactive: 95.5 µM.

For `O=c1[nH]c2cc([N+](=O)[O-])c(Nc3c4ccccc4nc4ccccc34)c([N+](=O)[O-])c2[nH]1`, the GI50 was active: 1.03 µM.

Take `N#CC(C(=O)/C(=N/NC(=O)c1ccccc1O)C(C#N)c1ccccc1)c1ccccc1` (centres undefined): the GI50 was inactive: > 100 µM. Consider `O=C1CCc2cc([N+](=O)[O-])ccc2O1`, for which the GI50 was inactive: > 100 µM. To `CCOC(=O)/C(C(=S)NC)=C(/N)N1CCCC1` belongs inactive: > 100 µM; to `COc1c(-c2ccccc2)nc2ccc(Oc3ccccc3)nn12`, inactive: > 100 µM; to `CN1CC2=C(N=C(S)NC2c2ccc(Cl)cc2)/C(=C/c2ccc(Cl)cc2)C1` (centres undefined), inactive: 17.2 µM.

`COC(=O)C(=NNc1ccccc1[N+](=O)[O-])C(=O)OC`: the GI50 is inactive: > 100 µM. Take `Clc1ccc(-c2ccc(-c3nnc(COc4ccc(OCc5nnc(-c6ccc(-c7ccc(Cl)cc7Cl)o6)o5)c(Cl)c4)o3)o2)c(Cl)c1`: the GI50 was inactive: > 100 µM. Take `NC1=NN(c2ccccc2)C(=O)C1C(=O)C(=O)Nc1ccc(Cl)c(Cl)c1` (centres undefined): the GI50 is inactive: > 100 µM. To `C=CCCCCCCCCCOC1C=CC(OC(C)=O)C(COC(C)=O)O1` (centres undefined) belongs inactive: > 100 µM; to `Clc1ccc(Cl)c(NNc2cc(Cl)ccc2Cl)c1`, inactive: > 10 µM. To `Cc1cccc2c(=O)c3c(O)cc(O)cc3n(C)c12` belongs inactive: > 100 µM. Regarding `N=C(N)N/N=C(/c1nc2ccc([N+](=O)[O-])cc2[nH]c1=O)C(O)c1ccc([N+](=O)[O-])cc1` (centres undefined), the GI50 is inactive: 80.9 µM. To `S=C1Nc2ccccc2SC1c1ccccc1` (centres undefined) belongs inactive: > 100 µM. Take `O=C1CC(c2ccc(Cl)cc2)=Nc2ccccc2N1`: the GI50 was inactive: 44.2 µM. To `COc1ccc(/N=C(C)/C(C)=N/c2ccc(OC)cc2)cc1` belongs inactive: > 100 µM. To `CC(C)(C)N/N=C(\C(=O)Nc1ccc([N+](=O)[O-])cc1[N+](=O)[O-])c1nc2ccc([N+](=O)[O-])cc2nc1O` belongs inactive: > 100 µM. On to `Cc1cc(Cl)ccc1NC(=O)C(=O)Cc1nc2ccc(C(=O)c3ccccc3)cc2nc1O`, for which the GI50 is inactive: > 100 µM. As to `O=C(N/N=C/c1c(-c2ccccc2)no[n+]1[O-])N1CCOCC1`, the GI50 is inactive: > 100 µM. To `CCOc1ccc(C(=O)/C=C2/Nc3ccccc3N/C2=C/C(=O)c2ccc(OCC)cc2)cc1` belongs inactive: > 100 µM; to `Cc1cccc(C)c1NC(=O)CCC(=O)NNc1nnc(C)n1N`, inactive: > 100 µM; to `C=CCN1C(=O)/C(=C\c2cc(C(C)(C)C)c(O)c(C(C)(C)C)c2)NC1=S`, inactive: 22.7 µM. Regarding `Cc1ccc2oc3c(c(Br)c(Br)n3C)c(=O)c2c1`, the GI50 is inactive: 23 µM. To `COc1nc2c(c(=O)n1C)N[C@H]1[C@H](OC(C)=O)[C@@H](OC(C)=O)CO[C@H]1N2` belongs inactive: > 100 µM; to `O=C1OC(c2ccc(Cl)cc2)(c2ccc(Cl)cc2)c2c1ccc1ccccc21`, inactive: > 100 µM; to `CCCCCCCCCN1CCC(=O)C(C(=O)OC)C1` (centres undefined), inactive: 31.8 µM. As for `CCOC(=O)/C=C/CC(C)(C)CCOC(C)=O`, the GI50 was inactive: > 10 µM.

For `COCC1OCCN1C` (centres undefined), the GI50 was inactive: > 100 µM. To `CC1OC(OC2CCCc3c(O)c4c(c(O)c32)C(=O)c2ccccc2C4=O)CC(N)C1O` (centres undefined) belongs active: 1.05 µM. Take `CCc1cc2c(cc1C(=O)CCC(=O)O)CC1(C2)Cc2cc(CC)c(C(=O)CCC(=O)O)cc2C1`: the GI50 is inactive: > 100 µM. On to `CCCC(=O)NC1=C(NCC)C(=O)c2ccccc2C1=O`, for which the GI50 was inactive: > 100 µM.

Regarding `COc1ccc(/C=C/C(=N/NC(=O)N/N=C(/C=C/c2ccc(OC)cc2)C(C)C)C(C)C)cc1`, the GI50 is inactive: > 100 µM. To `Cc1ccc(-c2c3nc(c(-c4ccc(C)cc4)c4ccc([nH]4)c(-c4ccc(OCC5COC(C)(C)O5)cc4)c4nc(c(-c5ccc(C)cc5)c5ccc2[nH]5)C=C4)C=C3)cc1` (centres undefined) belongs inactive: > 10 µM; to `COC(=O)c1cnn2c1ccc1ccccc12`, inactive: > 100 µM; to `CCOC(=O)C1Oc2ccc([N+](=O)[O-])c3c2C1(O)CCC3` (centres undefined), inactive: > 100 µM. For `O=[N+]([O-])/C=C\c1c[nH]c2ccc(OCc3ccccc3)cc12`, the GI50 was inactive: 15 µM. To `CCN(CC)C(=O)c1cccc2c(OC)ccc(OC)c12` belongs inactive: > 100 µM; to `O=C1CSCC(=O)Nc2ccccc2N1`, inactive: > 100 µM.

As to `CC(C)(C)[Si](C)(C)O/N=C\c1ccc(O[Si](C)(C)C(C)(C)C)cc1`, the GI50 was inactive: 69 µM. To `O=c1c(Br)c(-c2ccccc2)[s+]([O-])c2ccccc12` (centres undefined) belongs inactive: 16.7 µM; to `O=c1c2cc(S(=O)(=O)Nc3c(Cl)cccc3Cl)ccc2ncn1NS(=O)(=O)c1ccc2ccccc2c1`, inactive: > 62.5 µM; to `Cc1c(/N=C\c2ccc(N(CCC#N)CCC#N)cc2)c(=O)n(-c2ccccc2)n1C`, inactive: > 52.2 µM.

On to `COc1ccc(NC(=O)CC(=O)N/N=C/c2ccc(N(CCC#N)S(C)(=O)=O)cc2)cc1`, for which the GI50 is inactive: > 100 µM. To `NCCc1ccc(S(=O)(=O)O)cc1[N+](=O)[O-]` belongs inactive: > 100 µM; to `NC(N)=NC(P(=O)(O)O)P(=O)(O)O`, inactive: > 100 µM. To `C=C(C)CCC(=O)[C@](C)(O)[C@H]1[C@H](O)C[C@@]2(C)[C@@H]3CCc4c(cc(OC5OC(CO)C(O)C(O)C5O)c(O)c4C)C3(C)C(=O)C[C@]12C` (some centres undefined) belongs inactive: > 100 µM; to `O=C1O[B-](c2ccccc2)(c2ccccc2)[NH2+]C1CS` (centres undefined), inactive: > 100 µM; to `CC1C=C[C@H](Sc2ccccc2)CC[C@@]1(C)O` (some centres undefined), inactive: > 100 µM. As for `CCOC(=O)Nc1ccc(S(=O)(=O)OC)cc1.CCOC(=O)Nc1ccc(S(=O)(=O)OC)cc1.Nc1ncnc2c1ncn2C1OC(CO)C(O)C1O` (centres undefined), the GI50 is inactive: > 100 µM.

Consider `O=C(CCCn1ccnc1[N+](=O)[O-])NCCn1cncc1[N+](=O)[O-]`, for which the GI50 was inactive: > 100 µM. For `Oc1cc(Cc2ccccc2)c(Cc2ccccc2)cc1O`, the GI50 is inactive: > 10 µM.
